The other results are listed elsewhere or left out. Repeats are few or missing, and single values can be far off.
What was measured:
Test in all cases: cell count relative to DMSO control; melanoma cells; higher = more viable cells
Settings in all cases: library dose: standard library concentration; 72 h
[1] = system: SkMel28
[2] = system: SkMel2
[3] = system: SkMel30
[4] = system: SkMel5
[5] = system: UACC257
[6] = system: UACC62
[7] = system: WM115
[8] = system: WM1716
[9] = system: WM1745
[10] = system: WM3526
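Further: cells treated in 1,536-well plates, then fixed and DAPI-stained, with nuclei counted from automated high-throughput microscope images.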

| Structure (SMILES) | cell count [1] | cell count [2] | cell count [3] | cell count [4] | cell count [5] | cell count [6] | cell count [7] | cell count [8] | cell count [9] | cell count [10] |
| --- | --- | --- | --- | --- | --- | --- | --- | --- | --- | --- |
| Cn1cc(C2=C(c3cn(C4CCN(Cc5ccccn5)CC4)c4ccccc34)C(=O)NC2=O)c2ccccc21 [Enzastaurin] + NCC(=O)Nc1ccc(-n2nc(C(F)(F)F)cc2-c2ccc3c(ccc4ccccc43)c2)cc1 [OSU03012] (first compound 4 µM, partner dose 5 µM) | 24% | 33.8% | 34.4% | 48% | 89.2% | 42.4% | 65.5% | 63.7% | 32.8% | 40.8% |
| Cn1cc(C2=C(c3cn(C4CCN(Cc5ccccn5)CC4)c4ccccc34)C(=O)NC2=O)c2ccccc21 [Enzastaurin] + CN(NC(=O)CC(=O)NN(C)C(=S)c1ccccc1)C(=S)c1ccccc1 [STA4783] (first compound 4 µM, partner dose 0.03 µM) | 26.7% | 60% | 93.5% | 72.5% | 125% | 41.8% | 20.2% | 70.9% | 25.6% | 93.6% |
| C[C@]12O[C@H](C[C@]1(O)CO)n1c3ccccc3c3c4c(c5c6ccccc6n2c5c31)CNC4=O [Lestaurtinib] + Nc1cccc2c1CN(C1CCC(=O)NC1=O)C2=O [lenalidomide] (first compound 0.02 µM, partner dose 5 µM) | 67.1% | 86.5% | 99.5% | 59.3% | 94.7% | 98.4% | 73.5% | 117% | 104% | 63.9% |
| C[C@]12O[C@H](C[C@]1(O)CO)n1c3ccccc3c3c4c(c5c6ccccc6n2c5c31)CNC4=O [Lestaurtinib] + COc1cc(Nc2ncc(F)c(Nc3ccc4c(n3)NC(=O)C(C)(C)O4)n2)cc(OC)c1OC [Tamatinib] (first compound 0.02 µM, partner dose 2 µM) | 99.1% | 87.3% | 126% | 51.8% | 86.1% | 100% | 85.2% | 87.9% | 47.1% | 84.7% |
| C[As](C)SC[C@H](NC(=O)CC[C@H](N)C(=O)O)C(=O)NCC(=O)O [Darinaparsin] + CN(NC(=O)CC(=O)NN(C)C(=S)c1ccccc1)C(=S)c1ccccc1 [STA4783] (first compound 2 µM, partner dose 0.03 µM) | 12.9% | 69.8% | 79% | 40.7% | 71.5% | 58.4% | 26.1% | 63.6% | 42.4% | 85.1% |
| Cn1cc(C2=C(c3cn(C4CCN(Cc5ccccn5)CC4)c4ccccc34)C(=O)NC2=O)c2ccccc21 [Enzastaurin] + CO[C@H]1C[C@@H]2CC[C@@H](C)[C@@](O)(O2)C(=O)C(=O)N2CCCC[C@H]2C(=O)O[C@H]([C@H](C)C[C@@H]2CC[C@@H](OCCO)[C@H](OC)C2)CC(=O)[C@H](C)/C=C(\C)[C@@H](O)[C@@H](OC)C(=O)[C@H](C)C[C@H](C)/C=C/C=C/C=C/1C [everolimus] (first compound 4 µM, partner dose 0.1 µM) | 68.8% | 76.5% | 74.7% | 77.6% | 127% | 62.9% | 84.7% | 85.4% | 89.8% | 99.2% |
| C[As](C)SC[C@H](NC(=O)CC[C@H](N)C(=O)O)C(=O)NCC(=O)O [Darinaparsin] + CN(C)S(=O)(=O)c1ccc2c(c1)/C(=C/c1cc3c([nH]1)CCCC3)C(=O)N2 [SU6656] (first compound 2 µM, partner dose 2 µM) | 33.3% | 65.5% | 88.2% | 74.9% | 71.4% | 71.6% | 45% | 56.2% | 76.1% | 64% |
| N.N.[Cl][Pt][Cl] [cisplatin] + OCc1c[nH]c2ccccc12 [Indole-3-carbinol] (first compound 8 µM, partner dose 4 µM) | 60.7% | 77.1% | 96% | 83.6% | 90.1% | 94.9% | 112% | 96.2% | 104% | 82% |
| C[C@]12O[C@H](C[C@]1(O)CO)n1c3ccccc3c3c4c(c5c6ccccc6n2c5c31)CNC4=O [Lestaurtinib] + C[C@]1(O)C[C@@H](c2nc(-c3ccc4ccc(-c5ccccc5)nc4c3)c3c(N)nccn32)C1 [OSI906] (first compound 0.02 µM, partner dose 2 µM) | 50.7% | 51.4% | 63% | 45.8% | 75.4% | 71.9% | 73.6% | 87.5% | 57.5% | 47% |
| N.N.[Cl][Pt][Cl] [cisplatin] + Cn1nnc2c(C(N)=O)ncn2c1=O [temozolomide] (first compound 8 µM, partner dose 10 µM) | 24.8% | 112% | 71.2% | 120% | 108% | 64.6% | 91% | 39.5% | 126% | 111% |
| N.N.[Cl][Pt][Cl] [cisplatin] + CNC(=O)c1cc(Oc2ccc(NC(=O)Nc3ccc(Cl)c(C(F)(F)F)c3)cc2)ccn1 [sorafenib] (first compound 8 µM, partner dose 2 µM) | 74.1% | 82.5% | 74.9% | 71% | 58.1% | 83.8% | 101% | 100% | 65% | 68.9% |
| C[C@]12O[C@H](C[C@]1(O)CO)n1c3ccccc3c3c4c(c5c6ccccc6n2c5c31)CNC4=O [Lestaurtinib] + CCCS(=O)(=O)Nc1ccc(F)c(C(=O)c2c[nH]c3ncc(Cl)cc23)c1F [PLX4720] (first compound 0.02 µM, partner dose 0.4 µM) | 35.9% | 111% | 79.5% | 50.5% | 83.6% | 50.4% | 55.9% | 66.7% | 65% | 40.1% |
| Cn1cc(C2=C(c3cn(C4CCN(Cc5ccccn5)CC4)c4ccccc34)C(=O)NC2=O)c2ccccc21 [Enzastaurin] + Nc1nc(F)nc2c1ncn2[C@@H]1O[C@H](CO)[C@@H](O)[C@@H]1O [fludarabine] (first compound 4 µM, partner dose 1 µM) | 2.02% | 1.75% | 21.4% | 27.6% | 43.6% | 79.7% | 92.1% | 87.4% | 53.6% | 19.2% |
| Cn1cc(C2=C(c3cn(C4CCN(Cc5ccccn5)CC4)c4ccccc34)C(=O)NC2=O)c2ccccc21 [Enzastaurin] + O=C(Nc1cccc(Cl)c1)Nc1ncc(CCNc2ncnc3ccsc23)s1 [SNS314] (first compound 4 µM, partner dose 0.004 µM) | 34.3% | 68.5% | 85.2% | 65% | 76.1% | 92% | 46.6% | 61% | 68.6% | 53.5% |
| C[As](C)SC[C@H](NC(=O)CC[C@H](N)C(=O)O)C(=O)NCC(=O)O [Darinaparsin] + CCN(CC)CCCCNc1ncc2cc(-c3cc(OC)cc(OC)c3)c(NC(=O)NC(C)(C)C)nc2n1 [PD173074] (first compound 2 µM, partner dose 0.5 µM) | 124% | 110% | 88.5% | 77.6% | 106% | 85.8% | 79.3% | 5.66% | 87.7% | 88.2% |
| C[As](C)SC[C@H](NC(=O)CC[C@H](N)C(=O)O)C(=O)NCC(=O)O [Darinaparsin] + COC(=O)c1sccc1S(=O)(=O)Nc1ccc(Nc2ccccc2)cc1OC [GSK0660] (first compound 2 µM, partner dose 5 µM) | 58.2% | 82.4% | 71.1% | 50.8% | 81.2% | 63.1% | 73.2% | 63.4% | 83.8% | 68.6% |
| N.N.[Cl][Pt][Cl] [cisplatin] + O=C(Nc1cccc(Cl)c1)Nc1ncc(CCNc2ncnc3ccsc23)s1 [SNS314] (first compound 8 µM, partner dose 0.004 µM) | 101% | 90.2% | 98.8% | 118% | 83.3% | 82.5% | 60.3% | 71.1% | 96.1% | 81% |

Source: the supplement of paper PMC4604168 (melanoma cell lines)
